± gives the uncertainty stated by the source. The full ranking holds about 9,900 compounds; the median of “viability index relative to DMSO control” is about 1, and the lowest 2% start at about 0.85. This is one part of the list.
What follows are compounds tested on Plasmodium falciparum NF54 stage V gametocytes (assay: viability index relative to DMSO control (fraction); higher = less gametocyte killing). Settings: 2.5 µM, library set: Broad Institute DOS, incubation time: 72 h.
Method in brief: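 In 1,536-well plates, 10 µl of serum-free medium holding P. falciparum NF54 stage V gametocytes (0.75% gametocytemia, 1.25% hematocrit) received compound at 2.5 µM for 72 hr at 37°C in low oxygen. After one to two hours with 3 µl of 2.5 µM MitoTracker Red CMXRos containing 0.13% saponin, red particles of 20–70 µm2 were counted in a single field per well. Viability index is reported as the particle count over the plate mean of wells treated with solvent only.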
With `CO[C@H]1CN(C)C(=O)c2ccc(NC(C)=O)cc2OC[C@H](C)N(C(=O)c2cnccn2)C[C@H]1C` the viability index was 1.06 ± 0.08.
Compound `Cc1noc(C)c1S(=O)(=O)Nc1ccc2c(c1)CC(=O)N([C@H](C)CO)C[C@H](C)[C@@H](CN(C)Cc1ccc(Oc3ccccc3)cc1)O2` has a viability index of 0.9336 ± 0.0034.
`O=S(=O)(c1ccc(F)cc1)N1C[C@H]2[C@@H](c3ccccc31)[C@@H](CO)N2Cc1ccccc1Cl` showed a viability index of 0.9129 ± 0.0022.
`C[C@@H]1CN([C@@H](C)CO)C(=O)c2cccc(NS(C)(=O)=O)c2O[C@H]1CN(C)Cc1ccc(-c2ccccc2)cc1` was tested, and the viability index was 1.01 ± 0.029.
`CC(=O)N1[C@@H](CO)[C@@H](c2ccc(C3=CCCC3)cc2)C12CN(C(=O)NC(C)C)C2` showed a viability index of 1.1 ± 0.027.
With `CC[C@@H]1C/C=C\C[C@@H](c2ccc(OC)cc2OC)NC(=O)[C@@H](C)CC(=O)N1` the viability index was 1.02 ± 0.025.
`COc1ccc(NC(=O)N(C)C[C@H]2OCc3ccccc3-c3ccccc3C(=O)N([C@H](C)CO)C[C@@H]2C)c(OC)c1` showed a viability index of 1.07 ± 0.077.
With `C[C@@H]1CCCCO[C@@H](CN(C)C(=O)Nc2cccc3ccccc23)[C@H](C)CN([C@@H](C)CO)C(=O)c2cc(NC(=O)CCC(F)(F)F)ccc2O1` the viability index was 1 ± 0.061.
`COc1cccc(S(=O)(=O)N2CCCCN3[C@H](CO)[C@@H](c4ccc(C#CCC(C)C)cc4)[C@H]3C2)c1` was tested, and the viability index was 0.926 ± 0.059.
`COc1ccc(-c2ccc3c(c2)[C@@H]2[C@@H](CCN2C(=O)c2cccc(F)c2)[C@H](CO)N3)cc1` showed a viability index of 0.848 ± 0.042.
For `COc1ccc(NC(=O)N(C)C[C@@H]2OCc3ccccc3-c3ccccc3C(=O)N([C@H](C)CO)C[C@H]2C)c(OC)c1`, the viability index was 0.898 ± 0.011.
In the case of `COc1ccc2c3c([C@H](CO)N(C)C[C@]33CCN(CC3)C(=O)c3ccc4OCOc4c3)n(C)c2c1`, the viability index is reported as 0.888 ± 0.035.
`O=C1CN(S(=O)(=O)Cc2ccccc2)C[C@H]2[C@H](c3ccc(C#Cc4ccccc4)cc3)[C@@H](CO)N12` was tested, and the viability index was 0.955 ± 0.09.
With `CCCNC(=O)N1C[C@]2(CCN(CC2)C(=O)Cc2cccnc2)c2c([nH]c3cc(OC)ccc23)[C@H]1CO` the viability index was 1.06 ± 0.06.
In the case of `C[C@@H]1CN([C@H](C)CO)C(=O)c2cc(NC(=O)Nc3cccc4ccccc34)ccc2O[C@@H](C)CCCCO[C@@H]1CN(C)Cc1ccc(C(F)(F)F)cc1`, the viability index is reported as 1.07 ± 0.15.
With `CN1C(=O)c2cc(NC(=O)C3CCOCC3)ccc2OC[C@H]2O[C@H](CC(=O)NCC3CCCCC3)CC[C@@H]21` the viability index was 1.12 ± 0.029.
For `COc1cccc(NC(=O)N[C@@H]2C=C[C@@H](CC(=O)NCc3ccncn3)O[C@H]2CO)c1`, the viability index was 0.999 ± 0.02.
For `O=C(C[C@H]1C=C[C@@H](NC(=O)Nc2ccc3c(c2)OCO3)[C@@H](CO)O1)NCCCN1CCOCC1`, the viability index was 0.9 ± 0.15.
For `C[C@@H]1CCCCO[C@H](CN(C)S(=O)(=O)c2ccccc2)[C@@H](C)CN([C@H](C)CO)C(=O)c2cc(NC(=O)Nc3ccc4c(c3)OCO4)ccc2O1`, the viability index was 1.015 ± 0.0077.

— the supplement of paper PMC4723716
